Assay results reported in the supplement of paper PMC8728848.
Some of the results follow.

Legend:
Experiment in all cases: glycan array binding signal (z-score within array); higher = stronger binding
Conditions in all cases: glycan notation: IUPAC condensed, linker removed
[1] = molecular target: Gal(b1-4)GlcNAc(b1-3)Gal(b1-4)[Fuc(a1-3)]GlcNAc(b1-3)Gal(b1-4)[Fuc(a1-3)]GlcNAc
Outline: (§1)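 The Consortium for Functional Glycomics database supplied 3228 glycan arrays, of which those lacking an available protein sequence were dropped. The binding signal, a within-array Z-score, was averaged across arrays of the same protein sequence and across linkers. Negative scores can be read as non-binding.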

[2] = molecular target: Gal(b1-4)GlcNAc(b1-3)GalNAc
Outline: as §1

[3] = molecular target: Gal(b1-4)GlcNAc(b1-3)[Fuc(a1-3)GlcNAc(b1-6)]Gal(b1-4)Glc
Outline: as §1

[4] = molecular target: Gal(b1-4)GlcNAc(b1-3)[Gal(b1-4)GlcNAc(b1-6)]Gal(b1-4)GlcNAc
Outline: as §1

[5] = molecular target: Gal(b1-4)GlcNAc(b1-3)[GlcNAc(b1-6)]Gal(b1-4)GlcNAc
Outline: as §1

[6] = molecular target: Gal(b1-4)GlcNAc(b1-6)Gal(b1-4)GlcNAc
Outline: as §1

[7] = molecular target: Gal(b1-4)GlcNAc(b1-6)GalNAc
Outline: as §1

[8] = molecular target: Gal(b1-4)GlcNAc(b1-6)[Gal(b1-3)]GalNAc
Outline: as §1

[9] = molecular target: Gal(b1-4)GlcNAc(b1-6)[Gal(b1-4)GlcNAc(b1-3)]GalNAc
Outline: as §1

[10] = molecular target: Gal(b1-4)GlcNAc6P
Outline: as §1

[11] = molecular target: Gal(b1-6)Gal
Outline: as §1

[12] = molecular target: Gal3S(b1-3)GalNAc
Outline: as §1

[13] = molecular target: Gal3S(b1-3)GlcNAc
Outline: as §1

[14] = molecular target: Gal3S(b1-3)[Fuc(a1-4)]GlcNAc
Outline: as §1

[15] = molecular target: Gal3S(b1-4)Glc
Outline: as §1

[16] = molecular target: Gal3S(b1-4)Glc6S
Outline: as §1

[17] = molecular target: Gal3S(b1-4)GlcNAc
Outline: as §1

[18] = molecular target: Gal3S(b1-4)[Fuc(a1-3)]Glc6S
Outline: as §1

[19] = molecular target: Gal3S(b1-4)[Fuc(a1-3)]GlcNAc
Outline: as §1

[20] = molecular target: Gal3S(b1-4)[Fuc(a1-3)]GlcNAc6S
Outline: as §1

[21] = molecular target: Gal3S4S(b1-4)GlcNAc
Outline: as §1

[22] = molecular target: Gal3S6S(b1-4)GlcNAc
Outline: as §1

[23] = molecular target: Gal3S6S(b1-4)GlcNAc6S
Outline: as §1

[24] = molecular target: Gal4S(b1-4)GlcNAc
Outline: as §1

[25] = molecular target: Gal4S6S(b1-4)GlcNAc
Outline: as §1

[26] = molecular target: Gal6P(b1-4)GlcNAc
Outline: as §1

[27] = molecular target: Gal6S(b1-3)GlcNAc
Outline: as §1

[28] = molecular target: Gal6S(b1-3)GlcNAc6S
Outline: as §1

[29] = molecular target: Gal6S(b1-4)Glc
Outline: as §1

[30] = molecular target: Gal6S(b1-4)Glc6S
Outline: as §1

[31] = molecular target: Gal6S(b1-4)GlcNAc
Outline: as §1

[32] = molecular target: Gal6S(b1-4)GlcNAc6S
Outline: as §1

[33] = molecular target: GalNAc(a1-3)Gal
Outline: as §1

[34] = molecular target: GalNAc(a1-3)GalNAc
Outline: as §1

[35] = molecular target: GalNAc(a1-3)GalNAc(a1-3)Gal(a1-4)Gal(b1-4)GlcNAc
Outline: as §1

[36] = molecular target: GalNAc(a1-3)GalNAc(b1-3)Gal(a1-4)Gal(b1-4)Glc
Outline: as §1

[37] = molecular target: GalNAc(b1-3)Gal
Outline: as §1

[38] = molecular target: GalNAc(b1-3)Gal(a1-4)Gal(b1-4)GlcNAc
Outline: as §1

[39] = molecular target: GalNAc(b1-3)Gal(a1-4)Gal(b1-4)GlcNAc(b1-3)Gal(b1-4)Glc
Outline: as §1

[40] = molecular target: GalNAc(b1-3)Gal(a1-6)Gal(b1-4)Glc
Outline: as §1

[41] = molecular target: GalNAc(b1-3)GalNAc
Outline: as §1

[42] = molecular target: GalNAc(b1-3)GlcNAc
Outline: as §1

[43] = molecular target: GalNAc(b1-4)Gal(b1-4)Glc
Outline: as §1

[44] = molecular target: GalNAc(b1-4)GlcNAc
Outline: as §1

[45] = molecular target: GalNAc(b1-4)GlcNAc(b1-2)Man
Outline: as §1

B1: Clrb (Mus musculus) (protein)
chain: ITGATKTEQIPVNKTYAACPQNWIGVENKCFYFSEYPSNWTFAQAFCMAQEAQLARFDNQDELNFLMRYKANFDSWIGLHRESSEHPWKWTDNTEYNNTIPIRGEERFAYLNNNGISSTRIYSLRMWICSKLNSYSLHCQTPFFPSGTKHHHHHHHHG
- glycan array binding signal (z-score) [1]: -0.386
- glycan array binding signal (z-score) [2]: -0.288
- glycan array binding signal (z-score) [3]: -0.386
- glycan array binding signal (z-score) [4]: -0.387
- glycan array binding signal (z-score) [5]: 5.13
- glycan array binding signal (z-score) [6]: -0.431
- glycan array binding signal (z-score) [7]: 0.933
- glycan array binding signal (z-score) [8]: -0.241
- glycan array binding signal (z-score) [9]: -0.272
- glycan array binding signal (z-score) [10]: -0.237
- glycan array binding signal (z-score) [11]: -0.443
- glycan array binding signal (z-score) [12]: -0.054
- glycan array binding signal (z-score) [13]: -0.267
- glycan array binding signal (z-score) [14]: -0.389
- glycan array binding signal (z-score) [15]: -0.124
- glycan array binding signal (z-score) [16]: -0.129
- glycan array binding signal (z-score) [17]: -0.071
- glycan array binding signal (z-score) [18]: 0.329
- glycan array binding signal (z-score) [19]: -0.343
- glycan array binding signal (z-score) [20]: -0.153
- glycan array binding signal (z-score) [21]: -0.119
- glycan array binding signal (z-score) [22]: -0.099
- glycan array binding signal (z-score) [23]: -0.067
- glycan array binding signal (z-score) [24]: -0.31
- glycan array binding signal (z-score) [25]: -0.101
- glycan array binding signal (z-score) [26]: -0.424
- glycan array binding signal (z-score) [27]: -0.35
- glycan array binding signal (z-score) [28]: -0.357
- glycan array binding signal (z-score) [29]: -0.162
- glycan array binding signal (z-score) [30]: -0.472
- glycan array binding signal (z-score) [31]: 0.05
- glycan array binding signal (z-score) [32]: -0.187
- glycan array binding signal (z-score) [33]: 0.67
- glycan array binding signal (z-score) [34]: -0.464
- glycan array binding signal (z-score) [35]: -0.541
- glycan array binding signal (z-score) [36]: -0.444
- glycan array binding signal (z-score) [37]: -0.36
- glycan array binding signal (z-score) [38]: 2.59
- glycan array binding signal (z-score) [39]: -0.447
- glycan array binding signal (z-score) [40]: -0.023
- glycan array binding signal (z-score) [41]: -0.312
- glycan array binding signal (z-score) [42]: -0.506
- glycan array binding signal (z-score) [43]: -0.109
- glycan array binding signal (z-score) [44]: 3.73
- glycan array binding signal (z-score) [45]: 1.14
